# Laboratory results taken from PubChem BioAssay AID686971 (National Center for Advancing Translational Sciences (NCATS), 2013).
# Several values for one entry are separate records, joined by “and”; a condition that tells them apart may be missing. Equal values may be shown once. The campaign covered roughly 360,000 compounds. About 7,500 (2.1%) were called active. This list was built around the results that the source calls inconclusive (neither active nor inactive); the mix of calls is not that of the screen. The call rests on the fitted dose curve; in most records, active means well fitted cell-killing curve with a large enough effect; inconclusive means small, poorly fitted or top-dose-only effect, or effect the other way, or another doubt; inactive means no such curve, though single readings can be large or run the other way. Potencies beside an inconclusive call are fits to weak or partial responses and may not hold up.
# Test: qHTS for induction of synthetic lethality in tumor cells producing 2HG: qHTS for the HT-1080-IDH1KD cell line;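 on activity, negative = toxicity: 0% = DMSO wells and -100% = cell-free medium wells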
# Conditions: HT-1080 IDH1 knockdown viability, ATP luminescence, 48 h; activity, negative = toxicity: at 46.1 µM (top of the series) unless noted
# In short: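 IDH1KD HT-1080 cells, 750/well, RPMI + 5% FBS; compound pinned after 2 h settling; 48 h, 37 °C; CellTiter-Glo luminescence; % activity normalised to DMSO and no-cell wells; curves fitted, classed by r2 and efficacy.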
# Potency means the concentration at half of the fitted maximal effect; tags describe the fitted curve by direction and shape.
Compound,Potency,"activity, negative = toxicity"
O=C(c1ccccc1)N1CCC(c2nc3c(nnn3Cc3ccccc3Cl)c(=O)[nH]2)CC1,"inconclusive: 22.4 µM [cytotoxic, single point]",–
O=C(NNC(=O)C1CCC1)c1cccc(Cl)c1,inactive,–
CC(C)(C)OC(=O)N1CCC(c2c(C(=O)NCC3CCN(C4CCCC4)C3)cnn2-c2ccc(F)cc2)CC1 (stereo not drawn),inactive,–
Cc1cc(/C=C2\SC(=Nc3ccccc3)NC2=O)c(C)n1-c1ccc(S(N)(=O)=O)cc1,active: 5.17 µM,–
CN1CCN(CCCCOc2cccc3ccccc23)CC1,"inconclusive: 29.1 µM [cytotoxic, single point]",–
CN(C)c1ccc(/C=N/NC(=O)c2ccccc2)cc1,"inconclusive: 14.6 µM [cytotoxic, single point]",–
Nc1nc(Nc2cccc(F)c2)nc(NCc2ccco2)c1[N+](=O)[O-],active: 25.9 µM,–
CC1(C)Cc2c(C#N)c(N3CCN(C(=O)c4ccco4)CC3)nc(Cc3ccccc3)c2CO1,"inconclusive: 20.6 µM [cytotoxic, single point]",–
COc1ccc(NC(=O)C2CCN(S(=O)(=O)c3ccc4c(c3)CC(C)N4C(C)=O)CC2)cc1OC (stereo not drawn),inactive,–
CSCCC(C(=O)OCC(=O)c1ccc(C)c(C)c1)N1C(=O)c2ccccc2C1=O (stereo not drawn),"inconclusive: 32.6 µM [cytotoxic, partial curve, poor fit]",–
CC1CCCN(C(=O)Cc2cn(Cc3cccc(Cl)c3)c3ccccc23)C1 (stereo not drawn),"inconclusive: 20.6 µM [cytotoxic, single point]",–
CC(=O)N1CCc2cc(NC(=O)C3(C)CCN3Cc3ccc(C(C)C)cc3)ccc21 (stereo not drawn),"inconclusive: 18.4 µM [cytotoxic, single point]",–
COCCNc1nc(-c2ccc(OC)cc2C)c2sc(-c3ccccc3)cc2n1,"inconclusive: 29.1 µM [cytotoxic, single point]",–
CCCCc1c(-c2ccccc2OC)ncn1CCc1ccc(OC)cc1,"inconclusive: 18.4 µM [cytotoxic, single point]",–
Clc1cccc(CNc2ccn3nc(-c4cccs4)cc3n2)c1,"inconclusive: 20.6 µM [cytotoxic, single point]",–
O=C(NNC(=O)c1ccccc1O)c1ccc(Br)cc1,"inconclusive: 8.2 µM [cytotoxic, partial curve]",–
COc1ccc(CCNCc2ccc(OCc3ccc(Cl)nc3)c(OC)c2)cc1OC,"inconclusive: 16.4 µM [cytotoxic, single point]",–
COc1ccc(-c2cc(C(F)(F)F)nc(NCc3cccs3)n2)cc1,"inconclusive: 20.6 µM [cytotoxic, single point]",–
C=CCN1C(=O)C(O)(CC(=O)c2ccc(N)cc2)c2ccccc21 (stereo not drawn),inactive,–
CCN1CCn2c3c(c4cc(Cl)ccc42)CCCC31 (stereo not drawn),"inconclusive: 18.4 µM [cytotoxic, partial curve]",–
C=CCn1c(C)cc(C(=O)CSc2nc3ccccc3c(=O)[nH]2)c1C,"inconclusive: 14.6 µM [cytotoxic, partial curve]",–
OCC1OC(n2ccc3c(NO)ncnc32)C(O)C1O (stereo not drawn),active: 0.411 µM,–

Compound,Potency,"activity, negative = toxicity"
Cc1ccc(OCCNc2cc(N3CCN(CCO)CC3)ccc2[N+](=O)[O-])cc1C,"inconclusive: 23.1 µM [cytotoxic, single point]",–
CCOc1cc(CN2CCN(c3cccc(C(F)(F)F)c3)CC2)ccc1O,"inconclusive: 35.5 µM [cytotoxic, single point]",–
C[C@H](NC(=O)c1nc[nH]c1C(=O)NCCCCCN)C(=O)OC(C)(C)C,inactive,–
Cc1ccc(-c2csc(C(O)c3ccc(F)cc3)n2)cc1C (stereo not drawn),"inconclusive: 20.6 µM [cytotoxic, single point]",–
O=C1NC(c2ccccc2)(C(F)(F)F)C(=O)N1Cc1cccnc1 (stereo not drawn),–,inactive: -0.0791% [at 9.24 µM]
COC(=O)C1=C(C(=O)OC)[C@@H]2N(Cc3ccccc3)c3ccccc3[C@@]23C[C@@H](C(=O)OC)N(C(=O)c2ccc(Br)cc2)C3=N1,"inconclusive: 29.1 µM [cytotoxic, single point]",–
CC1(C)CC(=O)C=C(c2ccc(-c3ccccc3)cc2)C1=O,inactive,–
N#C/C(=C(/O)COC(=O)c1ccc(Cl)c(S(=O)(=O)N2CCOCC2)c1)c1nc2ccccc2[nH]1,inactive,–
CCOC(=O)c1ccc2nc(NC(=O)c3ccco3)sc2c1,"inconclusive: 18.4 µM [cytotoxic, single point]",–
CN(C)CCNc1nc2sc3c(c2c(=O)n1CCc1ccccc1)CCCCC3,"inconclusive: 29.1 µM [cytotoxic, single point]",–
O=C(COc1ccccc1Cl)N1CCN(c2ccc([N+](=O)[O-])c(N3CCOCC3)c2)CC1,inactive,–
O=C(Nc1cccnc1)c1cccs1,"inconclusive: 5.01 µM [cytotoxic, partial curve]",–
O=CNc1cc(-c2ccoc2)cn2c(-c3ccc(F)cc3)cnc12,"inconclusive: 29.1 µM [cytotoxic, single point]",–
O=c1c2ccccc2c(/C=N/c2ncn[nH]2)c(O)n1Cc1ccccc1,"inconclusive: 16.4 µM [cytotoxic, partial curve] and inconclusive: 8.2 µM [cytotoxic, partial curve]",–
COc1cc(Cl)c(C)cc1NC(=O)CSc1nc2ccccc2o1,"inconclusive: 25.1 µM [cytotoxic, single point]",–
CCn1cc(C(=O)NCc2ccco2)c(=O)c2cc(S(=O)(=O)N3CCC(C)CC3)ccc21,"inconclusive: 20.6 µM [cytotoxic, partial curve]",–
Cc1ccc2nc(-c3ccco3)c(Nc3ccccc3)n2c1,inactive,–
CCN1C(=O)CC(c2ccccc2)N(C2CCCC2)c2nc(Nc3ccc(C(=O)NC4CCN(C)CC4)cc3OC)ncc21 (stereo not drawn),active: 23.1 µM,–
N#CC1=C(N)Oc2cc(N)ccc2C1c1cc(Br)cs1 (stereo not drawn),active: 2.91 µM,–
COCOc1cccc(CN2CCC2(C)C(=O)Nc2ccc(C)c(O)c2)c1 (stereo not drawn),"inconclusive: 20.6 µM [cytotoxic, single point]",–
O=C(NN=Cc1ccc(F)c(F)c1)c1ccc(NS(=O)(=O)c2cccs2)cc1,–,inconclusive: 22.8%
